Laboratory results: PubChem BioAssay AID686978 (National Center for Advancing Translational Sciences (NCATS), 2013)
Screen size: about 420,000 compounds; about 64,000 (15%) were called active. This list was built around the results that the source calls inconclusive (neither active nor inactive); the mix of calls is not that of the screen. The call rests on the fitted dose curve; in most records, active means well fitted inhibition curve with a large enough effect; inconclusive means small, poorly fitted or top-dose-only effect; inactive means flat fitted curve, though single readings scatter. No potency is given beside an inconclusive call; the fits are too rough.

assay: qHTS for Inhibitors of human tyrosyl-DNA phosphodiesterase 1 (TDP1): qHTS in cells in absence of CPT; conditions: DT40 Tdp1-/- hTDP1 cells, no CPT, ATP luminescence, 48 h; activity change, negative = growth inhibition: at 46.2 µM (top of the series) unless noted; further: nearly all actives have a fitted effect of over 55% in size
Summary of the method: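 Luminescent ATP content (CellTiter-Glo) served as the growth readout. Knockout chicken DT40 cells expressing human TDP1 were exposed to compounds without camptothecin for a minimum 48 hr at 37 °C.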
On the % scale 0 is the no-effect control and ±100 the full control effect; potency means the concentration at half of the fitted maximal effect; tags describe the fitted curve by direction and shape.

| SMILES | activity change, negative = growth inhibition | Potency |
| --- | --- | --- |
| Cc1c(Cl)cccc1NC(=O)CSc1nc(=O)n(Cc2ccncc2)c2c1CCC2 | inactive: -0.847% |  |
| CCOC(=O)N1CCN(C(=O)C(CC(C)C)NS(=O)(=O)c2ccc3c(c2)oc(=O)n3C)CC1 (stereo not given) | inactive: -3.53% |  |
| O=C(CCCN1CCC(C(O)c2ccc(F)cc2)CC1)c1ccc(F)cc1 (stereo not given) |  | inconclusive [inhibitor, single point] |
| CCCC1=C(C(=O)OCC)C(c2cccs2)n2ncnc2N1 (stereo not given) |  | inconclusive [inhibitor, single point] |
| CN(C)S(=O)(=O)c1ccc(Cl)c(NC(=O)COC(=O)/C=C/c2ccco2)c1 | inactive: -14.8% |  |
| CCC1CCCCN1C(=O)CSc1nnc(-c2ccc(Cl)cc2)o1 (stereo not given) |  | active: 16.4 µM |
| COCC(C)n1c(SCC(=O)Nc2ccc3c(c2)OCCO3)nc2ccccc2c1=O (stereo not given) |  | inconclusive [inhibitor, single point] |
| CCNc1nc(NCC)nc(OCCOC(=O)c2ccccc2)n1 | inactive: -12.1% |  |
| CC(C)CCSc1ncnc2c1oc1nc3c(cc12)COC(C)(C)C3 |  | inconclusive [inhibitor, single point] |
| CN(C(=O)c1ccc(OC2CCN(S(=O)(=O)N(C)C)CC2)cc1)C1CCCCC1 |  | inconclusive [inhibitor, single point] |
| O=C(O)c1cc(-c2ccc3ccccc3n2)nc2ccccc12 |  | inconclusive [inhibitor, partial curve] |
| C=CCOn1c(=O)c(=O)n(OCc2ccccc2)c2ccccc21 | inactive: -11% |  |
| COc1ccc(Cc2c(-c3ccco3)nc3ccc(Cl)cn23)c(C)c1 |  | inconclusive [inhibitor, single point] |
| Cc1oc(-c2ccc(C(=O)NCCCOC(C)C)cc2)nc1CS(=O)(=O)c1ccccc1 |  | inconclusive [inhibitor, single point] |
| Cc1cccc(CSC(=N)N)c1 |  | inconclusive [inhibitor, single point] |
| Fc1cnc(N2CCc3ccccc32)nc1N1CCc2ccccc21 |  | inconclusive [inhibitor, single point] |
| CCN(CC)S(=O)(=O)c1ccc(NC2c3ccccc3C(=O)N2c2ccc(C)cn2)cc1 (stereo not given) |  | inconclusive [inhibitor, single point] |
| CC(=O)NCCn1c(C)cc2ccccc21 |  | inconclusive [inhibitor, single point] |
| COCCCNC(=O)Cn1ccc(N)nc1=O | inactive: -22.7% |  |
| COc1ccc(Cl)cc1NC(=O)c1[nH]c(C)c(C(C)=O)c1C | inactive: -12.1% |  |
| COc1ccc(S(=O)(=O)Nc2c(F)cccc2F)cc1 |  | inconclusive [inhibitor, single point] |
| COC1=CCC2([N+](=O)[O-])CN(CCO)CC1([N+](=O)[O-])C2 (stereo not given) | inactive: 16.3% |  |
| COc1ccc(-c2ccc(SCC(=O)N3c4ccccc4CC3C)nn2)cc1OC (stereo not given) |  | inconclusive [inhibitor, single point] |
| CC(C)(C)C(=O)Nc1ccc(N2CCCC2)cc1 |  | inconclusive [inhibitor, single point] |

| SMILES | activity change, negative = growth inhibition | Potency |
| --- | --- | --- |
| Cc1ccnc(NS(=O)(=O)c2ccccc2)c1 | inactive: -25.4% |  |
| CCCCOc1ccc(OCCNS(=O)(=O)N(C)C)cc1 | inconclusive: -30.3% [inhibitor] |  |
| COC(=O)c1sc(NC(=O)c2ccc(Cn3cc(Cl)cn3)o2)c(C#N)c1C |  | inconclusive [inhibitor, partial curve] |
| CCOc1cc(-c2cn(S(=O)(=O)c3cccc4nsnc34)nc2N)cc(OCC)c1OCC |  | inconclusive [inhibitor, partial curve] |
| O=C(Nc1cccc(F)c1)N1CCC2(CC1)CCN(C(=O)c1cc(C(F)(F)F)cc(C(F)(F)F)c1)CC2 |  | inconclusive [inhibitor, single point] |
| C/C(=N\NC(=O)c1cc(-c2cccnc2)nc2ccccc12)c1ccccc1O |  | active: 3.66 µM |
| Cc1ccc(-c2cc(N)n(Cc3ccc(Cl)cc3)n2)cc1 |  | inconclusive [inhibitor, single point] |
| COc1ccc(C2=NN(C(=O)COc3ncnc4ccccc34)C(c3ccco3)C2)cc1 (stereo not given) |  | active: 25.9 µM |
| COc1ccc(CCN2C(=O)C(Oc3ccccc3)C2c2ccc3c(c2)OCO3)cc1 (stereo not given) |  | inconclusive [inhibitor, single point] |
| O=C(O)c1ccc(S(=O)(=O)N2CCN(c3ccccn3)CC2)cc1 | inactive: -14.3% |  |
| N#C/C(=C/c1cccn1-c1cccc(C(=O)O)c1)c1ccc(Cl)cc1 | inactive: -8.48% |  |
| CCOc1cccc(C(=O)Nc2ccc(N3CCCC3)cc2)c1 |  | active: 16.4 µM |
| Cc1cccc(NC(=O)CSc2ncc3c(n2)-c2cc(Cl)ccc2N(C)S3(=O)=O)c1C |  | inconclusive [inhibitor, single point] |
| CCN(CC(=O)Nc1ccc2c(c1)OCO2)Cc1nc2ccccc2c(=O)[nH]1 |  | inconclusive [inhibitor, single point] |
| Cc1ccc(C2CCN(C(=S)NC(C)C)C2)cc1 (stereo not given) |  | inconclusive [inhibitor, single point] |
| CC(C)c1ccc(Nc2cc(C(=O)NCCCN(C)Cc3ccccc3)c3ccccc3n2)cc1 |  | inconclusive [inhibitor, partial curve, poor fit] |
| O=C(c1ccncc1)N1CCC2(CC1)CCN(c1cccc(-c3ccccc3)c1)CC2 |  | inconclusive [inhibitor, single point] |
| COc1ccc2[nH]cc(CCNc3ccnc(-c4ccccc4C(F)(F)F)n3)c2c1 |  | inconclusive [inhibitor, single point] |
| CC(=O)Oc1ccccc1Cn1c(C)c(C(=O)NCc2ccc(F)cc2)sc1=O |  | inconclusive [inhibitor, single point] |
| COC(=O)c1cc(-c2cccc([N+](=O)[O-])c2)c2c(=O)n(C)c(=O)n(C)c2n1 | inactive: 2.03% |  |
| COC(=O)c1ccc(C2c3c(-c4ccc(Br)cc4)n[nH]c3C(=O)N2c2ccc(Cl)cc2)cc1 (stereo not given) |  | inconclusive [inhibitor, single point] |
| CCc1ccc(C(=O)/C=C/NCc2ccc(F)cc2)cc1 | inconclusive: -35% [inhibitor] |  |
| CC(=O)N1CCN(C(=O)C(=O)Nc2c3c(nn2-c2ccc(Cl)cc2)CSC3)CC1 | inactive: -13.2% |  |
| C=C1C(=O)O[C@@H]2[C@H]1CC[C@H](C)[C@]1(O)CCC(=O)[C@@]21C |  | inconclusive [inhibitor, single point] |

| SMILES | activity change, negative = growth inhibition | Potency |
| --- | --- | --- |
| C[C@@H]1CN([C@@H](C)CO)C(=O)c2cccc(NS(C)(=O)=O)c2O[C@H]1CN(C)Cc1ccc(Oc2ccccc2)cc1 |  | inconclusive [inhibitor, single point] |
| Cc1cccc(C)c1NC(=O)C1CCCN(CCCc2ccccc2)C1 (stereo not given) |  | inconclusive [inhibitor, partial curve] |
| O=C(NCCc1cn2ccccc2n1)c1cc(COc2ccc3ncccc3c2)on1 |  | active: 5.8 µM |
| O=C(CNC(=O)c1ccc(Cl)cc1)NC1CCCCC1 | inactive: -3.69% |  |
| N#Cc1ccc(OCC(=O)N/N=C2\CCc3ccccc32)cc1 | inactive: -27.7% |  |
| CCOc1ccc2c(c1)c(=O)c(S(=O)(=O)c1ccc(CC)cc1)cn2CC |  | inconclusive [inhibitor, single point] |
| Oc1ccc(O)c(Cc2nc3ccccc3s2)c1 |  | inconclusive [inhibitor, single point] |
| Cn1c(Cc2ccccc2)nnc1SCC(=O)NCCc1ccccc1 | inactive: -15.5% |  |
| O=C(N/N=C/c1ccc(O)c(O)c1)c1cccc(S(=O)(=O)N2CCCCC2)c1 | inactive: -19.8% |  |
| COc1cc(/C=C2\SC(=O)N(Cc3ccc(F)cc3)C2=O)cc([N+](=O)[O-])c1O |  | inconclusive [inhibitor, single point] |
| O=C(COc1ccccc1)Nc1c(C(=O)N2CCN(c3ccc(F)cc3)CC2)oc2ccccc12 |  | inconclusive [inhibitor, single point] |
| COc1ccc(N(CC(=O)Nc2ccccc2C(F)(F)F)C2=NC3CS(=O)(=O)CC3S2)cc1 (stereo not given) |  | inconclusive [inhibitor, single point] |
| CCN(C(=O)CSc1n[nH]c(N)n1)c1cccc2ccccc12 | inactive: -24.5% |  |
| CCCCn1c(CCc2ccccc2)nc2cc3[nH]c(=O)c(C(C)C)nc3cc21 |  | inconclusive [inhibitor, single point] |
| O=C(Cn1nc(Cl)nc1Cl)c1ccc(F)cc1 | inactive: 1.13% |  |
| Cc1ccc(Sc2ccc(CO)cc2[N+](=O)[O-])cc1 |  | inconclusive [inhibitor, single point] |
| CC(C)(C)c1ccc(-c2nc3[nH]c(=O)cc(NC(=O)c4ccco4)n3n2)cc1 |  | inconclusive [inhibitor, single point] |
| O=C(Nc1ccc(F)cc1F)c1cc2ccc3cccnc3c2[nH]1 |  | inconclusive [inhibitor, full curve] |
| O=C1C(C=NCc2ccco2)=C(O)c2ccccc21 | inconclusive: -30.3% [inhibitor] |  |
| Cc1ccccc1Nc1cc(C(=O)NCC2CCCO2)c2ccccc2n1 (stereo not given) |  | inconclusive [inhibitor, single point] |
| Cn1c(Br)nc2c1c(=O)n(CC(O)COc1ccccc1)c(=O)n2C (stereo not given) |  | inconclusive [inhibitor, single point] |
| COc1cc(OC)cc(C(=O)NCCCCCCNC(=O)c2cc(OC)cc(OC)c2)c1 | inactive: -19.9% |  |
